pIC50: −log10 of the molar value. A lower IC50 marks a more sensitive line; a limit (>, <) means that the fit lies beyond the doses tested. For AUC the same curve is integrated over the 256-fold range of doses and scaled to a fraction: 1 means no effect, lower means more sensitive. For some of these results: A top dose marked as inferred is not printed in the source and was worked back from the curve model.
Columns and labels:
Test in all cases: Viability of human cancer cell lines after 72 h of drug (GDSC screen)
Temozolomide = compound: Cn1nnc2c(C(N)=O)ncn2c1=O [Temozolomide]; details: top dose 30 µM
Method: (§1)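 Human cancer cell lines in 384-well plates, medium with 10% serum, drug for 72 h over a 256-fold dose range (nine 2-fold or five 4-fold steps up to the top dose). Adherent lines were fixed and stained with the nucleic acid dye Syto60, suspension lines read with resazurin; signal relative to control wells, capped at 0 and 100%. One two-parameter sigmoid per drug and line, fitted in a mixed model over all curves with the slope shared within a line.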

CI-1040 = compound: O=C(NOCC1CC1)c1ccc(F)c(F)c1Nc1ccc(I)cc1Cl [CI-1040]; details: top dose 10 µM; top dose inferred
Method: as §1

ZG-10 = compound: CN(C)C/C=C/C(=O)Nc1ccc(C(=O)Nc2cccc(Nc3nccc(-c4cccnc4)n3)c2)cc1 [ZG-10]; details: top dose 10 µM; top dose inferred
Method: as §1

IPA-3 = compound: Oc1ccc2ccccc2c1SSc1c(O)ccc2ccccc12 [IPA-3]; details: top dose 32 µM; top dose inferred
Method: as §1

XL-880 = compound: COc1cc2c(Oc3ccc(NC(=O)C4(C(=O)Nc5ccc(F)cc5)CC4)cc3F)ccnc2cc1OCCCN1CCOCC1 [XL-880]; details: top dose 5.12 µM; top dose inferred
Method: as §1

Tubastatin A = compound: CN1CCc2c(c3ccccc3n2Cc2ccc(C(=O)NO)cc2)C1 [Tubastatin A]; details: top dose 20 µM
Method: as §1

## A549 (lung adenocarcinoma, adherent)
Temozolomide
  AUC: 0.967
  pIC50: < 4.52
CI-1040
  AUC: 0.685
  pIC50: 5.66
ZG-10
  AUC: 0.825
  pIC50: 5.15

## NCI-H929 (myeloma, suspension)
Temozolomide
  AUC: 0.985
  pIC50: < 4.52
CI-1040
  AUC: 0.69
  pIC50: 5.71
ZG-10
  AUC: 0.605
  pIC50: 5.94

## SK-GT-2 (stomach, adherent)
Temozolomide
  AUC: 0.983
  pIC50: < 4.52
CI-1040
  AUC: 0.925
  pIC50: < 5.00
ZG-10
  AUC: 0.782
  pIC50: 5.35

## NCI-H508 (large intestine, semi-adherent)
Temozolomide
  AUC: 0.96
  pIC50: < 4.52
CI-1040
  AUC: 0.713
  pIC50: 5.41
ZG-10
  AUC: 0.722
  pIC50: 5.38

## IM-95 (stomach, adherent)
IPA-3
  AUC: 0.955
  pIC50: < 4.49
XL-880
  AUC: 0.446
  pIC50: 6.65
Tubastatin A
  AUC: 0.968
  pIC50: < 4.70
ZG-10
  AUC: 0.749
  pIC50: 5.46

## NCC010 (kidney, adherent)
Temozolomide
  AUC: 0.983
  pIC50: < 4.52
CI-1040
  AUC: 0.911
  pIC50: < 5.00
ZG-10
  AUC: 0.823
  pIC50: 5.19

## NCI-H2066 (small cell lung carcinoma, adherent)
Temozolomide
  AUC: 0.975
  pIC50: < 4.52
ZG-10
  AUC: 0.977
  pIC50: < 5.00

## GP5d (large intestine, adherent)
IPA-3
  AUC: 0.924
  pIC50: < 4.49
Temozolomide
  AUC: 0.99
  pIC50: < 4.52
XL-880
  AUC: 0.711
  pIC50: 5.93
Tubastatin A
  AUC: 0.991
  pIC50: < 4.70
ZG-10
  AUC: 0.778
  pIC50: 5.44

## SK-MEL-28 (melanoma, adherent)
IPA-3
  AUC: 0.893
  pIC50: < 4.49
Temozolomide
  AUC: 0.976
  pIC50: < 4.52
XL-880
  AUC: 0.73
  pIC50: 5.85
Tubastatin A
  AUC: 0.985
  pIC50: < 4.70
ZG-10
  AUC: 0.718
  pIC50: 5.60

## H2804 (mesothelioma, adherent)
IPA-3
  AUC: 0.907
  pIC50: < 4.49
Temozolomide
  AUC: 0.984
  pIC50: < 4.52
XL-880
  AUC: 0.796
  pIC50: 5.57
Tubastatin A
  AUC: 0.97
  pIC50: < 4.70
ZG-10
  AUC: 0.765
  pIC50: 5.40

## OVCAR-3 (ovary, adherent)
IPA-3
  AUC: 0.86
  pIC50: 4.50
Temozolomide
  AUC: 0.985
  pIC50: < 4.52
XL-880
  AUC: 0.986
  pIC50: < 5.29
Tubastatin A
  AUC: 0.987
  pIC50: < 4.70
ZG-10
  AUC: 0.652
  pIC50: 5.76

## CL-34 (large intestine, adherent)
Temozolomide
  AUC: 0.979
  pIC50: < 4.52
CI-1040
  AUC: 0.658
  pIC50: 5.74
ZG-10
  AUC: 0.782
  pIC50: 5.33

## A673 (rhabdomyosarcoma, adherent)
IPA-3
  AUC: 0.99
  pIC50: < 4.49
Temozolomide
  AUC: 0.989
  pIC50: < 4.52
XL-880
  AUC: 0.784
  pIC50: 5.71
Tubastatin A
  AUC: 0.984
  pIC50: < 4.70
ZG-10
  AUC: 0.591
  pIC50: 5.97

## NCI-N87 (stomach, adherent)
Temozolomide
  AUC: 0.976
  pIC50: < 4.52
CI-1040
  AUC: 0.797
  pIC50: 5.14
ZG-10
  AUC: 0.718
  pIC50: 5.46

## OCI-LY7 (B-cell lymphoma, suspension)
CI-1040
  AUC: 0.901
  pIC50: 5.20
ZG-10
  AUC: 0.627
  pIC50: 5.90

## H2591 (mesothelioma, adherent)
IPA-3
  AUC: 0.904
  pIC50: < 4.49
Temozolomide
  AUC: 0.98
  pIC50: < 4.52
XL-880
  AUC: 0.7
  pIC50: 5.85
Tubastatin A
  AUC: 0.917
  pIC50: < 4.70
ZG-10
  AUC: 0.802
  pIC50: 5.17

## MKN7 (stomach, adherent)
Temozolomide
  AUC: 0.981
  pIC50: < 4.52
CI-1040
  AUC: 0.873
  pIC50: < 5.00
ZG-10
  AUC: 0.926
  pIC50: < 5.00

## SW48 (large intestine, adherent)
IPA-3
  AUC: 0.709
  pIC50: 5.11
Temozolomide
  AUC: 0.985
  pIC50: < 4.52
XL-880
  AUC: 0.622
  pIC50: 6.16
Tubastatin A
  AUC: 0.974
  pIC50: < 4.70
ZG-10
  AUC: 0.761
  pIC50: 5.45

## T-24 (bladder, adherent)
IPA-3
  AUC: 0.987
  pIC50: < 4.49
Temozolomide
  AUC: 0.987
  pIC50: < 4.52
XL-880
  AUC: 0.811
  pIC50: 5.59
Tubastatin A
  AUC: 0.974
  pIC50: < 4.70
ZG-10
  AUC: 0.861
  pIC50: 5.10

## HT-29 (large intestine, adherent)
IPA-3
  AUC: 0.987
  pIC50: < 4.49
Temozolomide
  AUC: 0.986
  pIC50: < 4.52
Tubastatin A
  AUC: 0.976
  pIC50: < 4.70
ZG-10
  AUC: 0.888
  pIC50: < 5.00

## PWR-1E (prostate, adherent)
Temozolomide
  AUC: 0.983
  pIC50: < 4.52
CI-1040
  AUC: 0.88
  pIC50: < 5.00
ZG-10
  AUC: 0.758
  pIC50: 5.46

## SK-CO-1 (large intestine, adherent)
IPA-3
  AUC: 0.962
  pIC50: < 4.49
Temozolomide
  AUC: 0.914
  pIC50: < 4.52
XL-880
  AUC: 0.68
  pIC50: 6.01
Tubastatin A
  AUC: 0.968
  pIC50: < 4.70
ZG-10
  AUC: 0.743
  pIC50: 5.53

## KATOIII (stomach, semi-adherent)
Temozolomide
  AUC: 0.986
  pIC50: < 4.52
CI-1040
  AUC: 0.909
  pIC50: < 5.00
ZG-10
  AUC: 0.693
  pIC50: 5.69

## NCI-H1915 (large cell lung carcinoma, adherent)
IPA-3
  AUC: 0.94
  pIC50: < 4.49
Temozolomide
  AUC: 0.986
  pIC50: < 4.52
XL-880
  AUC: 0.815
  pIC50: 5.54
Tubastatin A
  AUC: 0.936
  pIC50: < 4.70
ZG-10
  AUC: 0.809
  pIC50: 5.27

## H2803 (mesothelioma, adherent)
IPA-3
  AUC: 0.911
  pIC50: < 4.49
Temozolomide
  AUC: 0.982
  pIC50: < 4.52
XL-880
  AUC: 0.749
  pIC50: 5.72
Tubastatin A
  AUC: 0.938
  pIC50: < 4.70
ZG-10
  AUC: 0.965
  pIC50: < 5.00

## HT55 (large intestine, adherent)
IPA-3
  AUC: 0.987
  pIC50: < 4.49
XL-880
  AUC: 0.952
  pIC50: < 5.29
Tubastatin A
  AUC: 0.989
  pIC50: < 4.70
ZG-10
  AUC: 0.95
  pIC50: < 5.00

## Hs940-T (melanoma, adherent)
IPA-3
  AUC: 0.758
  pIC50: 4.87
Temozolomide
  AUC: 0.981
  pIC50: < 4.52
XL-880
  AUC: 0.984
  pIC50: < 5.29
Tubastatin A
  AUC: 0.983
  pIC50: < 4.70
ZG-10
  AUC: 0.84
  pIC50: 5.04

## MFE-319 (endometrium, adherent)
IPA-3
  AUC: 0.872
  pIC50: 4.54
Temozolomide
  AUC: 0.988
  pIC50: < 4.52
XL-880
  AUC: 0.821
  pIC50: 5.54
Tubastatin A
  AUC: 0.987
  pIC50: < 4.70
ZG-10
  AUC: 0.754
  pIC50: 5.49

## SK-LU-1 (lung adenocarcinoma, adherent)
IPA-3
  AUC: 0.718
  pIC50: 5.00
Temozolomide
  AUC: 0.938
  pIC50: < 4.52
XL-880
  AUC: 0.734
  pIC50: 5.74
Tubastatin A
  AUC: 0.956
  pIC50: < 4.70
ZG-10
  AUC: 0.833
  pIC50: 5.04

## H2810 (mesothelioma, adherent)
Temozolomide
  AUC: 0.984
  pIC50: < 4.52
ZG-10
  AUC: 0.901
  pIC50: < 5.00

## SU-DHL-10 (B-cell lymphoma, suspension)
Temozolomide
  AUC: 0.998
  pIC50: < 4.52
XL-880
  AUC: 0.49
  pIC50: 6.52
Tubastatin A
  AUC: 0.924
  pIC50: 4.83
ZG-10
  AUC: 0.772
  pIC50: 5.55

From the supplement of paper PMC4967469
